“And” between values parts separate entries of the source, which are not always exact repeats. Equal values may be shown once. The full ranking holds about 110,000 compounds; the median of “z-score” is about -0.1, and the highest 2% start at about 2. This is one part of the list. The source made the active and inactive calls.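 Rule for the calls: active = z-score in the third read window above 3 or below -3; inactive = the rest.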 Residues, ends and D or L forms follow the SMILES beside them. *: point of attachment. Boc = CC(C)(C)OC(=O)*
What follows are molecules tested against Metabotropic glutamate receptor 8 (Rattus norvegicus) (UniProt P70579) (assay: mGluR8 Gi/Go-coupled signaling modulation – cell-based, rat, thallium flux, HTS, primary screen (AID 488969)). Details: HEK293 rat mGluR8, GIRK (G protein-gated inwardly rectifying potassium channel) thallium flux, FluoZin2; at 10 µM; stronger effect = higher value; submaximal glutamate (EC20) added with thallium.
Chain of UniProt P70579 (P70579 whole entry, looked up): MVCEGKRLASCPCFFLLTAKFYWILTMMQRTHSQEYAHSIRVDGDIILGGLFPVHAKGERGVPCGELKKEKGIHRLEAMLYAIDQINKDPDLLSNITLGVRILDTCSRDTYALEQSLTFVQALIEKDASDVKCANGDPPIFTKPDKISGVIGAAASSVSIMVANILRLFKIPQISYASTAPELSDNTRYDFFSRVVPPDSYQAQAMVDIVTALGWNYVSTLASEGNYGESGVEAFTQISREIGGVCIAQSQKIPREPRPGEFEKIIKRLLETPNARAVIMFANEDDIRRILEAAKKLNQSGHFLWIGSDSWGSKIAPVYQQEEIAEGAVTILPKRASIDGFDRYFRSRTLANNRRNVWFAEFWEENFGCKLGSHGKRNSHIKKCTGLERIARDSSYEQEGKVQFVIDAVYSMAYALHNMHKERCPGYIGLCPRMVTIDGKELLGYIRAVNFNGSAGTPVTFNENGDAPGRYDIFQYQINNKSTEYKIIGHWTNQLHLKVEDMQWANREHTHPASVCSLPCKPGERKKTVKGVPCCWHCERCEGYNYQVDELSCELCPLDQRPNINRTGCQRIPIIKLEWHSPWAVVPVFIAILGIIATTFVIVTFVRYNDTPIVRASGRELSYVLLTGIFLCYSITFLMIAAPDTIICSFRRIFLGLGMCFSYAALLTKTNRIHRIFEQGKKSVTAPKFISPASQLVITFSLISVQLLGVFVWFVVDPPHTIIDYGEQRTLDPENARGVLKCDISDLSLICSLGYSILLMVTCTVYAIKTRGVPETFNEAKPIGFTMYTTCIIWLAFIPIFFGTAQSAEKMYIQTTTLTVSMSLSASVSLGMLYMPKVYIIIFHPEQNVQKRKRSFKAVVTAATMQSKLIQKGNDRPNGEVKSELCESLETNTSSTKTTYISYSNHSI

SMILES | z-score
CCOC(=O)N1CCN(C(=O)c2oc(=O)c3ccccc3c2-c2ccc(C)cc2)CC1 | -0.945
CCOc1ccc(-c2nnc(-c3ccccc3)o2)cc1 | -0.195
O=C(Nc1cccc2ncccc12)c1cccnc1 | 0.116
Nc1nc(CN2CCCCCC2)nc(Nc2ccc(F)cc2)n1 | -0.88
CCN(c1ccc(NC(=O)COC(=O)c2ccc(C)c(S(=O)(=O)N3CCOCC3)c2)cc1)C(C)C | -0.29
CC1(C)CC(=O)c2cc(C(=O)O)c(=O)n(-c3ccccc3)c2C1 | 0.711
CSCCC(NC(=O)OC(C)(C)C)C(=O)NC(C(=O)NC(CC(C)C)C(N)=O)C(C)C (stereo not drawn) (Boc-Met-Val-Leu-NH2; configuration not given here) | -0.958
COc1ccc(CC(=O)Nc2ccc(S(=O)(=O)Nc3cc(C)on3)cc2)cc1 | -0.00735
COc1cccc(/C=C2\C(=O)C(=O)c3ccccc32)c1 | 0.201
Cc1ccc2nc(NC(=O)C3CCCN(S(=O)(=O)c4cnc[nH]4)C3)sc2c1 (stereo not given) | 0.151
COC(=O)c1cc2c(ccn2-c2ccc(F)cc2)n1CC(C)C | 0.033
C=CCn1c(=N)n(CC(O)c2ccco2)c2ccccc21 (stereo not given) | -0.0946
O=C(O)c1ccc2cc[nH]c2c1 | 0.693
Cc1cc(NC(=O)Cn2nc(C(F)(F)F)c3c2CCC3)no1 | -0.301
Cc1ccc(C)c(OCC(=O)Nc2nc3ccc([N+](=O)[O-])cc3s2)c1 | 0.0186
Cc1c(C(=O)NCC2CCCO2)sc2nc(-c3ccccc3)cn12 (stereo not given) | -0.72
Cc1ccc(OC2=NS(=O)(=O)c3ccccc32)cc1 | 0.36
CC(C)C(c1nnnn1Cc1cccs1)N1CCN(C2CCCC2)CC1 (stereo not given) | 0.331
CN1C(=O)/C(=N\OC(=O)c2cccc3ccccc23)c2ccccc21 | -0.497
CCOC(=O)C1CCN(C(=O)/C=C/c2ccccc2OC)CC1 | -1.49
CC(C)[C@H](NC(=O)NC1CCCC1)C(=O)O | -0.243
NNC(=S)NCc1ccc2c(c1)OCO2 | 0.0642

SMILES | z-score
CCCOc1cccc(C2/C(=C(/O)c3ccc(OC)cc3)C(=O)C(=O)N2CCN(C)C)c1 (stereo not given) | -0.278
Clc1ccc(-c2nnc(SCc3nc4ccccc4s3)o2)cc1 | -0.00869
Cc1ccc(C)c(S(=O)(=O)NCc2ccc(C(=O)NCc3ccccn3)cc2)c1 | 0.0923
O=C(c1ccccc1)c1c[nH]c(C(=O)NCCCn2ccnc2)c1 | -0.0473
CC1(C)OC(=O)C(=CNn2cnc3ccccc3c2=O)C(=O)O1 | 0.581
CCOC(=O)Cc1[nH]nc2c1C(c1ccoc1)C(C#N)=C(N)O2 (stereo not given) | -0.03
O=C(Nc1nc(-c2ccccc2)cs1)NC1CCCCC1 | -0.0613
COc1ccc(-n2ccnc2SCC(=O)NCc2ccc3c(c2)OCO3)cc1 | -0.165
Cc1cc2c(ncn2C(C)C)c(N)c1C | -0.0549
COCCN(C(=O)CSc1nnc(Nc2ccccc2F)s1)c1c(N)n(Cc2ccccc2)c(=O)[nH]c1=O | -0.348
CCc1nnc(NC(=O)CSc2nnc(CSc3nc(C)cc(C)n3)n2C)s1 | -0.55
Cc1cc(C)c(NC(=O)CS(=O)CC(=O)N2CCN(c3ccc(F)cc3)CC2)c(C)c1 (stereo not given) | 0.349
COc1ccc(C)cc1NC(=O)NCCC1=CCCCC1 | active: 10.6
CC(C)C(=O)NC(=S)Nc1ccc(S(=O)(=O)N2CCN(C)CC2)cc1 | 0.0813
Cc1cccc(NC(=O)CCc2ccc(C)o2)c1 | -1.35
CCOc1cc2c(cc1OCC)C(c1ccccc1)N(c1ccccc1)C(=O)C2 (stereo not given) | -0.705
O=C(CCCCCNC(=O)c1ccccc1)N/N=C/c1ccc(O)cc1O | -0.269
COc1ccc(-c2csc3nc(C)n(-n4cccc4)c(=O)c23)cc1 | -2.01
COc1ccc(NC(=O)C2=C(C)NC(=O)NC2c2cccc(OC)c2OC)c(OC)c1 (stereo not given) | -0.12
CCOc1ccc(S(=O)(=O)N2CCN(c3ccc(C)cc3C)CC2)cc1 | -0.178
CC1CCc2c(sc(NS(=O)(=O)c3ccccc3)c2C(=O)OC(C)C)C1 (stereo not given) | active: 8.13
Cc1cc(C)nc(SCCn2c(N(C)Cc3ccccc3)nc3c2c(=O)n(C)c(=O)n3C)n1 | -0.583

SMILES | z-score
CCOC(=O)Cc1csc(SCc2cc(=O)oc3cc(O)ccc23)n1 | -0.133
Cc1nc2ccccc2c2oc(C(=O)NC3CC3)cc12 | 0.106
O=C1Nc2ccc(S(=O)(=O)NCc3ccco3)c3cccc1c23 | 0.198
c1ccc(-c2noc(-c3ccccc3-c3ccccc3)n2)cc1 | -0.531
CCN(CC(O)CON=C1c2ccccc2-c2ccccc21)S(=O)(=O)c1ccc(Cl)cc1 (stereo not given) | 0.138
CCOc1ccc(/C=N/OCC(=O)Nc2ccc(OCc3ccccc3)cc2)cc1OC | -0.11
O=C(NCc1ccco1)c1cc2sccc2n1Cc1ccccc1 | -1.39
CCOC(=O)CC(N)c1ccc(OC)cc1 (stereo not given) | -0.127
COc1ccc(COC(=O)c2ccc(N3CCCC3=O)cc2)cc1F | -0.423
Cc1ccccc1/C=C1\CCCc2ccccc2C1=O | 0.174
Cn1cnnc1SCCn1c(N2CCCCC2)nc2c1c(=O)[nH]c(=O)n2C | -0.341
N=c1c2c(-c3ccccc3)c(-c3ccccc3)n(Cc3ccco3)c2ncn1CCN1CCOCC1 | -0.19
CCN(CC)CCCN1C(=O)C(O)=C(C(=O)c2ccco2)C1c1ccc(C)o1 (stereo not given) | 0.0674
O=C(NC1=NCCS1)C12CC3CC(C1)CC(C(=O)NC1=NCCS1)(C3)C2 | -0.156
CCN(CC)CCCNC(=O)c1cc(-c2ccc(Cl)c(Cl)c2)on1 | active: 5.37
COc1ccc(CNC(=O)c2nnn(Cc3ccc(OC)cc3)c2N)cc1 | 0.097
Cc1ccc2c(c1)cc1c(=O)[nH]ncn12 | -0.199
CN(C)CCCNC(=O)c1ccc2[nH]c3ccccc3c2c1 | 1.63
Cc1ccc(-c2nc3ccccc3c(=O)n2NC(=S)N(C)C)cc1 | -0.153
CCOc1ccc(Nc2cc(=O)oc3ccccc23)cc1 | -0.368
Cc1nn(-c2ccccc2)c(/N=C/c2ccccc2O)c1-c1ccccc1 | -0.4
Cc1cc(=O)oc2c(C(=O)/C=C/c3ccccc3)c(O)ccc12 | -0.495

SMILES | z-score
CCCCn1nnnc1SCC(=O)N1CCCC1 | -0.385
CN1CC2([N+](=O)[O-])CC=C(Oc3ccccc3)C([N+](=O)[O-])(C1)C2 (stereo not given) | -0.0972
N#Cc1cc(-c2ccc(Cl)cc2)cnc1Sc1ccccc1 | 0.0512
Nc1nc(-c2ccccc2)c(N=Nc2ccc(Cl)cc2)s1 | 0.141
CN=C(Nc1cc(C)nn1-c1ccccc1)c1ccc(F)cc1 | -1.36
COC(=O)Cn1c(=NC(=O)c2ccc([N+](=O)[O-])s2)sc2cc(Br)ccc21 | 0.0339
CCN(CC)Cc1c(C(=O)OC)nnn1-c1nonc1N | 0.958
COc1ccc(Cl)cc1N/C(N)=N/c1nc(CSc2ccc(C)cc2)cc(=O)[nH]1 | -0.303
Cc1cccc(C)c1NC(=O)N1CCC(N2CCCCC2)CC1 | -0.792
CN(C)CCOC(=O)C1(c2ccccc2)CCOCC1 | -0.0616 and 0.489
Cc1ccc(-n2c(N)c(C(=O)Nc3c(C)n(C)n(-c4ccccc4)c3=O)c3nc4ccccc4nc32)cc1C | -1.41
COc1ccc(-c2nc(-c3cccc([N+](=O)[O-])c3O)cc(=O)o2)cc1OC | 1.13
COc1cccc(C2C(C#N)=C(N)OC3=C2C(=O)CCC3)c1OC(=O)c1ccco1 (stereo not given) | -0.941
Cc1cccc2cc(CN(Cc3ccc(F)cc3)Cc3nnnn3C3CCCC3)c(=O)[nH]c12 | -0.483
N=C1SC(c2ccccc2)C(=O)N1c1ncc(Cc2ccccc2)s1 (stereo not given) | 0.173
CCCCN(CCCNC(=O)C1CCCN(S(=O)(=O)CC)C1)Cc1ccccc1 (stereo not given) | 0.123
CCOC(=O)N1CCN(c2ncnc3c2cnn3-c2ccc(Cl)cc2)CC1 | -0.0512
COc1ccc(Nc2ncnc3c2cnn3Cc2ccc(C)cc2)cc1 | 0.267
CCOC(=O)CN1C(=O)CN(c2ccc(C)c(C)c2)C1=O | -0.226
O=c1n(-c2ccccc2)c(=O)n2n1CCC2 | -1.02
Cc1cccc(-c2cc3nc(C)cc(NCCCN(C)C)n3n2)c1 | 0.996
Cc1ccc(C2CC(=O)c3cnc(NC(=O)c4ccco4)nc3C2)cc1 (stereo not given) | -0.398

SMILES | z-score
O=C(CSc1nnc2sc3ccccc3n12)NCc1ccco1 | 0.295
CCOC(=O)c1cc2occc2n1CC(=O)NC1CCCCC1C (stereo not given) | -0.179
Oc1ccc(N2CCN(C(c3ccccn3)c3nnnn3C3CCCC3)CC2)cc1 (stereo not given) | -0.298
CC(=O)NCCOC(=O)Nc1ccncc1 | 0.0114
O=C(COc1ccc(OCc2ccccc2)cc1)NC1CCOC1=O (stereo not given) | -0.0067
CC(=O)C1=C(O)C(=O)N(CCCO)C1c1ccccc1 (stereo not given) | -0.134
O=C(CN1C(=O)CSC1=O)NC1CCCCC1 | 0.606
Cc1cccc(C(=O)NC2CC3CCCC(C2)N3S(=O)(=O)c2ccccc2)c1 (stereo not given) | 0.082
CC(C)NC(=O)Cn1c(=O)cnc2ccccc21 | 0.171
C/C(=N/NC(=O)CN1CCN(S(=O)(=O)c2ccc(Br)cc2)CC1)c1ccco1 | 0.0136
O=C(NCc1cccs1)C1CCN(S(=O)(=O)c2cccs2)CC1 | -0.232
CN(CC(=O)Nc1ccc(C#N)cc1)Cc1ccc(Cl)c(Cl)c1 | 0.0228
CC1(C(=O)O)CCC(C(=O)NC2CCCCC2)C1(C)C (stereo not given) | -0.238
CC12CCC(C(=O)N3CCc4ccccc43)(CC1=O)C2(C)C (stereo not given) | 0.155
CCc1ccc(C(C)NC(=O)/C=C/c2ccc(Br)cc2)cc1 (stereo not given) | -0.0914
Cc1cc2c(c(=O)o1)C(C1C=CCCC1)C(C#N)=C(N)O2 (stereo not given) | -0.151
CC(C)Cn1c(N)c(C(=O)CSc2ccccc2)c(=O)n(C)c1=O | -0.216
CC1(C(=O)NC2CCCC2)CCC(=O)N1CCC1=CCCCC1 (stereo not given) | 0.294
COc1ccc(S(=O)(=O)N(CC(=O)N/N=C/c2cccs2)c2cc(C)cc(C)c2)cc1OC | 0.0274
CCC(CC)C(=O)Nc1cccc(-c2nc3ccccc3o2)c1 | -0.334
Cc1[nH]n(-c2cccc3ccccc23)c(=O)c1/C=N/NC(=O)c1cccc([N+](=O)[O-])c1 | -0.742
Cc1noc(C)c1S(=O)(=O)N(CC(=O)N1CCn2c1nc1ccccc12)c1ccc(C(C)C)cc1 | -0.204
